Source: the RNAGym collection of RNA variant scans (doi:10.7554/elife.90254)
Read counts are not given, so values of variants with three or more changes are uncertain.

B1: OR4K15 (parent)
chain: GUUAACGGUCAUAGGCCAUGGAAACUAGGAGCACCAUUUCGCUGCCAGUGAAGAAAUGAACAAAGAAAAUCUGGGCCAGGCAGGCAUCAAAAGAAAUAGUCUUGCGCUCAACCAGAAAGUCUGUAAUCAUUUUAAGGGUA

Variants of: B1
Assay: self-cleavage, relative activity (ratio to wild type); higher = more cleavage; in vitro, sequencing; the parent is a self-cleaving ribozyme

Variant | self-cleavage
G41A A59U U87A U100C A140G | 1.91
U43G A54G U122A | 1.43
C46U A47U A52U A92G U122A | 1.48
U43C A66U U139C | 1.16
A47G A78G U102C | 0.22
U43C A60G A94G | 1.48
U43C A94G C109U | 0.47
A47C A62G U133C | 1.19
A47G A64G U72C | 0.09
U43C G53A A67G U70A A90G C101U | 0.03
U43A A52G U97C | 0.58
C46U A129G U139A | 1.79
G44A A55G U102C | 2.02
A47C A51G C88U | 1.63
U43C A96G U102A A114U | 0.03
U43G U49C U103C U131C | 0.77
C46U A95G U100A A129C | 0.55
A47G A51G A86G | 0.48
C40U C113U U124C | 0.06
U43C A47G A125G U131C U133C | 0.2
U43C A78U G106U U139C | 0.01
C45U A51G A69U A89C | 1.85
A47G A55G C76U U122C | 0.08
C40A A94G U127C U139C | 0.52

Variant | self-cleavage
U43C A67G U130A | 1.94
U43C A60G A95G U108C A114G | 0.02
U43C U131C A135G | 1.34
G41C A51G U102C | 1.28
A47C G65A A114G A129G | 0.01
A47G C101U A135G | 0.21
U43A U100C U132C | 2.54
U43A A56G G137U | 2.92
A47C A55G A91G A95G A129G U133C | 2.42
G41A A60G A92G G106A | 0.02
G41U A47U A51U A54G U130C | 0.41
U43A G53A A92U U131C | 1.78
U43G U57C C128A | 0.89
U39C U103C U124C | 0.35
A47G A66G G106A | 0
U43C U72C G74U U120A | 0.09
U43C A78U A94G | 0.27
A47G U108C U132C A135G | 0
U43A A51G A117G | 1.21
U43C G48A U108C | 0.01
U43C A51G A114U | 0.06
C40U A47G U70C G79A | 0.19
U43A A64G A95G | 1.8
C45G A47G U87C | 0.9

Variant | self-cleavage
G44C A59G A86U A118G U130C | 1.61
U43C A62U A126G | 1.77
G41A U72A C105G | 0.01
U43A A47U A117G U133C A134G | 2
A47G A89G A111G | 0.03
C40A G83A A96G | 2.43
U43C A60U A135G | 1.8
U43A A68G U72C U102C A134G | 0.25
U43C U57C U102A | 0.39
C45A A89G A118G | 0.74
C46U A52G A96G A110G | 0.16
U43C A63U A82G A114G A126G | 0.25
U43C G44A U131A | 1.1
C42A A63U U97A | 1.33
U43A A51G A91G | 1.56
U43C A54G A59G A78G U103C A116U | 0.05
U39G A52G U70C A86G | 0.62
A47G A62U U97C U130C | 0.62
U43A A118G U122C | 0.96
U43A A51G U57C A66U | 1.05
A47G A54U A89U U100A | 0.8
A47G A64G U72C G79A A90G A125G | 0.02
C40U A52G A56G A114U | 0.07
C40A A51G A52U | 1.02

Variant | self-cleavage
G41A U102C A110G | 0.17
U43G U122A U130C A140U | 1.46
U43C A55G A90G A91G | 0.75
C45U A52G U124C | 0.63
U43A A56G A62G G138A | 1.05
U43A A69G G106U U124C A125G | 0
A47G A63U A135G | 1.48
U43C A116G U124C U132C A140U | 0.29
U43C A66G A96U | 1.46
C45U A63G U87C | 1.71
U43C A51G A116G | 0.42
A47G A56U U122A | 1.01
U43A A62C C85U A114G A117C | 0.07
U43A A92G U108C | 0.04
U43C A91G U120C U132C | 0.24
U43C A94G A110G | 0.19
U39C U103C C112G | 0.01
G41A U57C A66G A96G | 1.64
A47G U49C A129C | 0.42
U43A A90G A135G | 1.15
A47G A56G G58A A125G | 0
C42A A64G A86U A116G A126G | 0.25
U43C A54G A60G A89G | 0.87
U43C U87C A126C | 1.01

Variant | self-cleavage
U43A U87C A116C U130C | 0.02
U43G A52G G75U A96U | 0.13
A47G U70A U127A | 0.75
A47G A54U U131C | 1.16
G44A A96G U122C | 1.68
U43A A55G A94G U108A A125G U130C | 0
U43A A67G A94U U108C U120A | 0
A47C A52G A64G U120C | 1.25
A47G A54G A67G | 1.31
U43C A54G U120A | 2.02
A47G A78G A90G | 0.23
C40U U70C A91G U97C | 0.53
C42U U43G A69G G80A A96G | 0.15
C40A U72C A114U | 0.07
U43C A68G A114G | 0.41
C45U A47G G48A A116G | 1.01
U43C U87C A95G U100C | 2.92
C40U U49A U57C | 0.93
U43C A59U U130A | 1.41
U43A A78U U120C | 0.21
A47G A86G U120C | 0.45
U43A G115U A117G | 0.09
G44A A62G A86G U108A | 0.01
A47G A91G A96G | 1.15

Variant | self-cleavage
U39C U108C A118U | 0.01
U43C A92G A98G | 0.34
U43A A98C U100C | 1.46
U43A A54G A94G | 2.44
A47C U103G A116G | 0.02
U43C A59G A126G | 0.88
C40U A47G A116G | 0.6
U43C A82G U97C | 0.3
A47C A56G A94G A110G A116G | 0.05
C46U A59G A96U U97C | 1.46
C40A A63G U122C | 1.81
U43C A90G G106A | 0.02
C46U U57A A60G | 0.83
U43C A59C A111G A135G | 0.01
U43C U103C U130C | 0.64
U43A C112A U132A | 0.2
U43C U49C A82G U120G | 0.19
G41A A55G A96G U120C U127C | 0.55
U43A A52G A78G U97A U100C U122C | 0.27
C46A A55G A60C G84A U132C | 2.07
C46U A86U G136U | 2.57
U43A A78G U130C | 0.21
U43C A92G A135U | 0.75
U43A A55G A68G U70C | 0.44

Variant | self-cleavage
U43C A56G A64G G93A | 1.45
U43C A59G A116G | 0.33
U43C U100A U120A A126G | 0.22
U43A U49C U131C | 1.7
G41A U72C A86G A94G | 0.3
U43C A63G A116G | 1.34
A47G U103C U120C | 0.12
G41A U87A A96G | 2.23
U43G U70C A90G A111G | 0.08
C45U A82G U108C | 0.02
U43A C81U G83U G84A | 0.08
A47G A67G G73A A86U A90G A94G U108C | 0.01
U43C A67G A96G U108C A111G | 0.01
G44A A82U A92G | 0.12
C46U A95C A98G A116U U120C | 0.04
U43C A89G A92G A98G U127C | 0.05
A47G A51U A62G A68G A69U A82G U122C | 0.19
A47G A86G A118U | 0.62
G41A A52G A62G A91G A117G A129U | 0.65
A47G A68G A82G A116G | 0.34
U43C G44A U57A | 1.23
U43A U57C G106A U120C U124A U132C | 0
G41C U57C A78G C113U | 0.03
